{"source": "PubChem BioAssay (NCATS)", "note": "Values joined by “and” are separate entries in the source; they are usually repeats but may differ in a detail not shown here. Equal entries are not always repeated. Inconclusive means that the source gave no clear call. Such entries were picked first, then a sample of the others. A potency beside an inconclusive call is a rough fit, not a confirmed value. Active and inactive are the calls of the source. Calls follow the shape of the dose curve; as a rule, active = well fitted inhibition curve with a large enough effect; inconclusive = small, poorly fitted or top-dose-only effect; inactive = no such curve, though single readings can be large or run the other way. % is scaled to controls: 0 for no effect and ±100 for the full control effect; potency is read from the fitted curve at half-maximal effect; tags tell the direction and shape of the fitted curve."}
{"test": "Primary qHTS for small molecule stabilizers of the endoplasmic reticulum resident proteome: Secreted ER Calcium Modulated Protein (SERCaMP) assay (AID 1508630)", "details": "SH-SY5Y GLuc-SERCaMP (Gaussia luciferase released on ER calcium loss) secretion, thapsigargin, luminescence; activity change, negative = inhibition: at 38.4 µM (top of the series)", "description": "Assay Provider: Brandon K. Harvey Ph.D.\nNational Institute on Drug Abuse, National Institutes of Health, Baltimore, MD\nEndoplasmic reticulum (ER) dysregulation is associated with human pathologies including neurodegenerative, cardiovascular, muscular, and diabetic conditions. Maintenance of ER calcium is critical for functions of the ER and its depletion can lead to loss of ER resident proteins, in a process termed exodosis. Therapeutic compounds capable of attenuating the redistribution of ER proteins under pathological conditions may slow or stop disease progression. To identify such compounds, we performed a quantitative high-throughput screen (qHTS) using the SERCaMP assay, which monitors secretion of ER resident proteins triggered by calcium depletion.\nSERCaMP was initially developed as a reporter of ER calcium homeostasis using a Gaussia luciferase with a modified signal peptide and carboxy-terminus (GLuc-SERCaMP), modifications that confer secretion of the reporter in response to ER calcium depletion (Henderson et al., 2014). The assay was used to screen 9,501 compounds, including a collection of drugs approved by the FDA (US), EMA (EU), NHI (Japan), and HC (Canada) regulatory agencies (Huang et al., 2011). Since the SERCaMP reporter reflects the exodosis phenomenon (Trychta et al., 2018a), compounds identified in the screen have the potential to prevent exodosis by different mechanisms such as stabilizing ER calcium or augmenting ERS retrieval.\n1. Henderson, M.J., Wires, E.S., Trychta, K.A., Richie, C.T., and Harvey, B.K. (2014). SERCaMP: a carboxy-terminal protein modification that enables monitoring of ER calcium homeostasis. Mol Biol Cell 25, 2828-2839.\n2. Huang, R., Southall, N., Wang, Y., Yasgar, A., Shinn, P., Jadhav, A., Nguyen, D.T., and Austin, C.P. (2011). The NCGC pharmaceutical collection: a comprehensive resource of clinically approved drugs enabling repurposing and chemical genomics. Sci Transl Med 3, 80ps16.\n3. Trychta, K.A., Back, S., Henderson, M.J., and Harvey, B.K. (2018a). KDEL Receptors Are Differentially Regulated to Maintain the ER Proteome under Calcium Deficiency. Cell Rep 25, 1829-1840 e1826.\nSEQUENCE No. (1, 2, 3, etc.); […] (e.g., Cells, Incubation, Reagent, etc.); VALUE and DESCRIPTION.\n1; Reagent; 5 uL; 1000 SH-SY5Y cells per wells\n3; Compound; 23 nL; Control inhibitor / compound library\n5; Reagent; 100 nM; Thapsigargin\n7; Reagent; 1 uL; 0.5x coelenterazine\n8; Detection; Luminescence; ViewLux imaging system\nNOTES (numbers refer to sequence above)\n1; SH-SY5Y human neuroblastoma cells stably expressing GLuc-SERCaMP (SH-SY5Y-GLuc-ASARTDL) cells were seeded in 1,536 well white tissue culture treated plates (Corning, Cat# 7464) in DMEM-high glucose-sodium pyruvate (ThermoFisher Scientific, Cat #10569) supplemented with 10% bovine growth serum (Hyclone), 10 U/ml penicillin (Gibco), 10 ug/ml streptomycin (Gibco), and 20 mM HEPES.\n2; Assay plates were incubated for 5 hour at 37C in a humidified incubator containing 5% CO2.\n3; qHTS libraries (23 nl, final concentrations of 1.53 uM, 7.67 uM, 38.3 uM) or controls (neutral control: DMSO, positive control: dantrolene) were added using a Kalypsis pin-tool Robotic System equipped with 1536 pinheads.\n4; Cells were then incubated for 16 hours at 37C, 5% CO2.\n5; Thapsigargin was added at 100 nM to deplete ER calcium stores.\n6; Cells were incubated for 4 hour (37 °C, 5% CO2)\n7; Gaussia luciferase in the medium was measured by adding 1 ul of 0.5x coelenterazine (final concentration 0.07x) prepared in Gaussia Luciferase Glow Assay Buffer (Pierce), without addition of the Cell Lysis Buffer Reagent.\n8; Luminescence was measured using a ViewLux […] CCD imaging system (Perkin Elmer) equipped with clear filters. […] The same controls were also used for the calculation of the Z' factor, a measure of assay quality control, as previously described (Zhang et al., 1999). […]"}
{"smiles": "C=CCN1CC[C@]23CCCCC2[C@H]1Cc1ccc(O)cc13", "note": "(stereo not given in full)", "Potency": "inconclusive: 10 µM [inhibitor, single point]"}
{"smiles": "C=C(C)[C@H]1C2C(=O)O[C@H]1[C@H]1OC(=O)[C@@]34O[C@@H]3C[C@]2(O)[C@@]14C", "Potency": "inactive"}
{"smiles": "NC(=NCCc1ccc(I)cc1)SCCCc1cnc[nH]1", "Potency": "inconclusive: 31.6 µM [inhibitor, single point]"}
{"smiles": "C[N+]1(C)C2CCC1CC(OC(=O)c1c[nH]c3ccccc13)C2", "note": "(stereo not given)", "Potency": "inconclusive: 5.01 µM [inhibitor, full curve, poor fit]"}
{"smiles": "CCCN1CCO[C@@H]2c3cc(O)ccc3OC[C@H]21", "Potency": "inactive and inconclusive: 141 µM [inhibitor, full curve] and inconclusive: 35.5 µM [inhibitor, partial curve, poor fit]"}
{"smiles": "CCCN(CCC)[C@@H]1CCc2cccc(O)c2C1", "Potency": "inactive"}
{"smiles": "NC(=O)CN1CC(O)CC1=O", "note": "(stereo not given)", "Potency": "inconclusive: 2.82 µM [inhibitor, full curve, poor fit]"}
{"smiles": "CC(N)[C@H](O)c1ccc(O)c(O)c1", "note": "(stereo not given in full)", "Potency": "inactive"}
{"smiles": "CC(C)(O)[C@H]1O[C@@H]2CC[C@]3(C)[C@@]4(C)c5[nH]c6ccccc6c5C[C@@H]4CC[C@]3(O)C2=CC1=O", "Potency": "inconclusive: 31.6 µM [inhibitor, partial curve, poor fit]"}
{"smiles": "CC(C)(O)C(Cl)(Cl)Cl", "Potency": "inactive"}
{"smiles": "CN1C(=O)CCS(=O)(=O)[C@H]1c1ccc(Cl)cc1", "Potency": "inactive"}
{"smiles": "Oc1ccc2c3c1O[C@H]1c4oc5ccccc5c4C[C@@]4(O)C(C2)N(CC2CC2)CC[C@]314", "Potency": "inconclusive: 28.2 µM [inhibitor, single point]"}
{"smiles": "CNCC/C=C\\c1cccnc1", "Potency": "inactive"}
{"smiles": "c1cncc([C@@H]2CCCCN2)c1", "activity change, negative = inhibition": "inconclusive: -32.4% [inhibitor]"}
{"smiles": "CC(C)[C@]1(O)[C@@H](OC(=O)c2ccc[nH]2)[C@@]2(O)[C@@]3(C)C[C@]4(O)O[C@@]5([C@H](O)[C@@H](C)CC[C@]35O)[C@@]2(O)C41C", "Potency": "inactive"}
{"smiles": "O=C(O)/C=C/CO", "Potency": "inactive and inconclusive: 2.82 µM [inhibitor, full curve]"}
{"smiles": "CCC(Oc1ccc(Cl)cc1)C(=O)OC1CC2CCC(C1)N2C", "note": "(stereo not given)", "Potency": "inconclusive: 7.08 µM [inhibitor, partial curve, poor fit]"}
{"smiles": "O=C(Nc1ccccc1)N1CC2(CCN(C(=O)Oc3ccccc3)CC2)C1", "Potency": "inactive"}
{"smiles": "C[C@H](N)CN1CCc2ccc(Br)cc21", "Potency": "inconclusive: 11.2 µM [inhibitor, partial curve, poor fit]"}
{"smiles": "O=C(O)c1cc[c]([Hg][Cl])cc1", "Potency": "inactive"}
{"smiles": "c1cc2cc(c1)C[n+]1ccc(c3ccccc31)NCc1ccc(cc1)CNc1cc[n+](c3ccccc13)C2", "Potency": "inconclusive: 11.2 µM [inhibitor, partial curve, poor fit]"}
{"smiles": "C[C@@H]1OC(=O)[C@H]2C[C@H]3CCCC[C@@H]3[C@@H](/C=C/[C@H]3CCC[C@H](C)N3C)[C@@H]12", "Potency": "inconclusive: 7.08 µM [inhibitor, partial curve, poor fit]"}
{"smiles": "CN(C(=O)Cc1ccccc1)[C@H](CN1CCCC1)c1ccccc1", "Potency": "inactive"}
{"smiles": "CC(C)C[C@H](NC(=O)[C@H](Cc1ccccc1)NC(=O)CNC(=O)[C@H](C)NC(=O)[C@@H](N)Cc1ccc(O)cc1)C(=O)O", "Potency": "inconclusive: 0.355 µM [inhibitor, full curve, poor fit]"}
{"smiles": "C#CCOC(=O)C1=CCCN(C)C1", "Potency": "inactive"}
{"smiles": "O=C(Cc1ccc(Cl)c(Cl)c1)N1CCCC[C@H]1CN1CCCC1", "Potency": "inconclusive: 10 µM [inhibitor, single point]"}
{"smiles": "O=C1C2CCN(CC2)C1(CO)CO", "Potency": "inactive"}
{"smiles": "COC(=O)C1=CO[C@@H](C)[C@@H]2CN3CCc4c([nH]c5cc(OC)ccc45)[C@@H]3C[C@H]12", "Potency": "inconclusive: 28.2 µM [inhibitor, single point]"}
{"smiles": "COc1ccc(NC(=O)N2CCCC3(CCN(C(=O)Oc4ccccc4)CC3)C2)cc1", "Potency": "inconclusive: 10 µM [inhibitor, partial curve, poor fit]"}
{"smiles": "C[C@@H](C(=O)OC1C[C@H]2CC[C@@H](C1)N2C)c1ccc(Br)cc1", "note": "(stereo not given in full)", "Potency": "inconclusive: 10 µM [inhibitor, partial curve, poor fit]"}
{"smiles": "C[C@H](N)Cc1c[nH]c2ccc(OCc3cccs3)cc12", "Potency": "inconclusive: 31.6 µM [inhibitor, partial curve, poor fit]"}
{"smiles": "O=C(Oc1ccccc1)N1CCC2(CCCN(C(c3ccccc3)c3ccccc3)C2)CC1", "Potency": "inconclusive: 28.2 µM [inhibitor, single point]"}
{"smiles": "O=C(O)Cc1cnc[nH]1", "Potency": "inconclusive: 10 µM [inhibitor, partial curve, poor fit]"}
{"smiles": "Cc1noc(C)c1C(=O)N1CCC[C@@]2(CCN(CC(C)C)C2)C1", "Potency": "inactive"}
{"smiles": "C(=C/c1ccccc1)/CN1CCN(CCOC(c2ccccc2)c2ccccc2)CC1", "Potency": "inconclusive: 28.2 µM [inhibitor, single point]"}
{"smiles": "CC(C)[C@@]1(NC(=O)[C@@H]2C[C@@H]3c4cccc5[nH]cc(c45)C[C@H]3N(C)C2)O[C@@]2(O)[C@@H]3CCCN3C(=O)[C@H](Cc3ccccc3)N2C1=O", "Potency": "inconclusive: 7.94 µM [inhibitor, partial curve, poor fit] and inconclusive: 28.2 µM [inhibitor, single point]"}
{"smiles": "C[C@H](N)Cc1c[nH]c2ccc(O)cc12", "Potency": "inactive"}
{"smiles": "C=C(C)[C@H]1CN[C@H](C(=O)O)[C@H]1CC(=O)O", "Potency": "inconclusive: 0.355 µM [inhibitor, full curve]"}
{"smiles": "CC1(C)N(O)C(c2ccc(C(=O)O)cc2)=[N+]([O-])C1(C)C", "Potency": "inconclusive: 3.55 µM [inhibitor, full curve, poor fit]"}
{"smiles": "c1csc(CN2CCCC3(CCNCC3)C2)n1", "Potency": "inconclusive: 35.5 µM [inhibitor, partial curve, poor fit]"}
